Results as given in paper PMC9911399, “Two distinct binding modes provide the RNA-binding protein RbFox with extraordinary sequence specificity”.
Residue numbers refer to the chain shown, from its start. Some of the results follow.

T1: RBFOX1 RRM RbFoxmut (Fox-RRM*) (Homo sapiens, UniProt Q9NWB1 109-208, R118D;E147R;N151S;E152T)
T1 sequence: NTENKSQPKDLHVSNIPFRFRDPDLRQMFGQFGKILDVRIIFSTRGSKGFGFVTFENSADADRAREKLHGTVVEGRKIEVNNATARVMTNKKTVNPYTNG

B1: UGGCAGG (DNA:RNA)
RNA: GGGAGACCGGAAUUCAGAUUGUCCUGGCAGGUUAAAUCCCGUCGUAGCCACCA
DNA 1: CAATCTGAATTCCGGTCTCCC
DNA 2: TGGTGGCTACGACGGGATT
B2: CUCCCAG (DNA:RNA)
RNA: B1 RNA with U25C, G26U, G27C, A29C, G30A
DNA 1: CAATCTGAATTCCGGTCTCCC
DNA 2: TGGTGGCTACGACGGGATT
B3: UAGAUCG (DNA:RNA)
RNA: B1 RNA with G26A, C28A, A29U, G30C
DNA 1: CAATCTGAATTCCGGTCTCCC
DNA 2: TGGTGGCTACGACGGGATT
B4: AUGAUAG (DNA:RNA)
RNA: B1 RNA with U25A, G26U, C28A, A29U, G30A
DNA 1: CAATCTGAATTCCGGTCTCCC
DNA 2: TGGTGGCTACGACGGGATT
B5: GUGUAGG (DNA:RNA)
RNA: B1 RNA with U25G, G26U, C28U
DNA 1: CAATCTGAATTCCGGTCTCCC
DNA 2: TGGTGGCTACGACGGGATT
B6: UGGUAUG (DNA:RNA)
RNA: B1 RNA with C28U, G30U
DNA 1: CAATCTGAATTCCGGTCTCCC
DNA 2: TGGTGGCTACGACGGGATT
B7: UUCCUCG (DNA:RNA)
RNA: B1 RNA with G26U, G27C, A29U, G30C
DNA 1: CAATCTGAATTCCGGTCTCCC
DNA 2: TGGTGGCTACGACGGGATT
B8: ACGCUGA (DNA:RNA)
RNA: B1 RNA with U25A, G26C, A29U, G31A
DNA 1: CAATCTGAATTCCGGTCTCCC
DNA 2: TGGTGGCTACGACGGGATT
B9: ACUCUUG (DNA:RNA)
RNA: B1 RNA with U25A, G26C, G27U, A29U, G30U
DNA 1: CAATCTGAATTCCGGTCTCCC
DNA 2: TGGTGGCTACGACGGGATT
B10: AUCCUCU (DNA:RNA)
RNA: B1 RNA with U25A, G26U, G27C, A29U, G30C, G31U
DNA 1: CAATCTGAATTCCGGTCTCCC
DNA 2: TGGTGGCTACGACGGGATT
B11: AAUUGCU (DNA:RNA)
RNA: GGGAGACCGGAAUUCAGAUUGUCCAAUUGCUUUAAAUCCCGUCGUAGCCACCA
DNA 1: CAATCTGAATTCCGGTCTCCC
DNA 2: TGGTGGCTACGACGGGATT
B12: CGAGGAG (DNA:RNA)
RNA: B1 RNA with U25C, G27A, C28G, A29G, G30A
DNA 1: CAATCTGAATTCCGGTCTCCC
DNA 2: TGGTGGCTACGACGGGATT
B13: UUACCAC (DNA:RNA)
RNA: B1 RNA with G26U, G27A, A29C, G30A, G31C
DNA 1: CAATCTGAATTCCGGTCTCCC
DNA 2: TGGTGGCTACGACGGGATT
B14: AUUUGUU (DNA:RNA)
RNA: B11 RNA with A26U, C30U
DNA 1: CAATCTGAATTCCGGTCTCCC
DNA 2: TGGTGGCTACGACGGGATT
B15: UUUACCA (DNA:RNA)
RNA: B11 RNA with A25U, A26U, U28A, G29C, U31A
DNA 1: CAATCTGAATTCCGGTCTCCC
DNA 2: TGGTGGCTACGACGGGATT
B16: GAGACUC (DNA:RNA)
RNA: B11 RNA with A25G, U27G, U28A, G29C, C30U, U31C
DNA 1: CAATCTGAATTCCGGTCTCCC
DNA 2: TGGTGGCTACGACGGGATT
B17: CGUUCUA (DNA:RNA)
RNA: B11 RNA with A25C, A26G, G29C, C30U, U31A
DNA 1: CAATCTGAATTCCGGTCTCCC
DNA 2: TGGTGGCTACGACGGGATT
B18: GAGCCAG (DNA:RNA)
RNA: B1 RNA with U25G, G26A, A29C, G30A
DNA 1: CAATCTGAATTCCGGTCTCCC
DNA 2: TGGTGGCTACGACGGGATT
B19: CAGAUCA (DNA:RNA)
RNA: B11 RNA with A25C, U27G, U28A, G29U, U31A
DNA 1: CAATCTGAATTCCGGTCTCCC
DNA 2: TGGTGGCTACGACGGGATT
B20: AGAAUAA (DNA:RNA)
RNA: B11 RNA with A26G, U27A, U28A, G29U, C30A, U31A
DNA 1: CAATCTGAATTCCGGTCTCCC
DNA 2: TGGTGGCTACGACGGGATT
B21: GCCGAAU (DNA:RNA)
RNA: B11 RNA with A25G, A26C, U27C, U28G, G29A, C30A
DNA 1: CAATCTGAATTCCGGTCTCCC
DNA 2: TGGTGGCTACGACGGGATT
B22: AGCUUAC (DNA:RNA)
RNA: B11 RNA with A26G, U27C, G29U, C30A, U31C
DNA 1: CAATCTGAATTCCGGTCTCCC
DNA 2: TGGTGGCTACGACGGGATT
B23: ACGUCCU (DNA:RNA)
RNA: B11 RNA with A26C, U27G, G29C
DNA 1: CAATCTGAATTCCGGTCTCCC
DNA 2: TGGTGGCTACGACGGGATT
B24: GGUAAAG (DNA:RNA)
RNA: B1 RNA with U25G, G27U, C28A, G30A
DNA 1: CAATCTGAATTCCGGTCTCCC
DNA 2: TGGTGGCTACGACGGGATT
B25: UCGAGAC (DNA:RNA)
RNA: B1 RNA with G26C, C28A, A29G, G30A, G31C
DNA 1: CAATCTGAATTCCGGTCTCCC
DNA 2: TGGTGGCTACGACGGGATT
B26: CCGACCU (DNA:RNA)
RNA: B11 RNA with A25C, A26C, U27G, U28A, G29C
DNA 1: CAATCTGAATTCCGGTCTCCC
DNA 2: TGGTGGCTACGACGGGATT
B27: UGAACAG (DNA:RNA)
RNA: B1 RNA with G27A, C28A, A29C, G30A
DNA 1: CAATCTGAATTCCGGTCTCCC
DNA 2: TGGTGGCTACGACGGGATT
B28: UGGGCAC (DNA:RNA)
RNA: B1 RNA with C28G, A29C, G30A, G31C
DNA 1: CAATCTGAATTCCGGTCTCCC
DNA 2: TGGTGGCTACGACGGGATT
B29: AGAAUAC (DNA:RNA)
RNA: B11 RNA with A26G, U27A, U28A, G29U, C30A, U31C
DNA 1: CAATCTGAATTCCGGTCTCCC
DNA 2: TGGTGGCTACGACGGGATT
B30: CGCCGCU (DNA:RNA)
RNA: B11 RNA with A25C, A26G, U27C, U28C
DNA 1: CAATCTGAATTCCGGTCTCCC
DNA 2: TGGTGGCTACGACGGGATT
B31: CUGAGAA (DNA:RNA)
RNA: B11 RNA with A25C, A26U, U27G, U28A, C30A, U31A
DNA 1: CAATCTGAATTCCGGTCTCCC
DNA 2: TGGTGGCTACGACGGGATT

target: T1, RBFOX1 RRM RbFoxmut (Fox-RRM*); experiment: EMSA; HiTS-Eq, 1 nM pool, 10 min; buffer printed only for the single-RNA assays: 10 mM Tris pH 7.5, 150 mM NaCl, 3.4 mM EDTA, 0.001% NP-40, 30 C; conditions: tags: His6 N-terminal (pET28a); label: 5' 32P
In short: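 Purified RbFox RRM (wild type or mutant) was equilibrated for 10 min in 50 µL with 1 nM of a 5′-radiolabelled pool of RNA with 7 randomized nucleotides, its flanks annealed to DNA oligonucleotides, across increasing protein concentrations. Free RNA was separated by 8% native PAGE, excised, reverse-transcribed, PCR-barcoded and sequenced on an Illumina HiSeq 2500. Relative association constants came from read-count changes of each variant against the control reaction, normalised to the cognate motif.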

Row | Binder | binding signal
1 | B1 | 0.109 KA relative to UGCAUGU
2 | B2 | 0.111 KA relative to UGCAUGU
3 | B3 | 0.0938 KA relative to UGCAUGU
4 | B4 | 0.154 KA relative to UGCAUGU
5 | B5 | 0.111 KA relative to UGCAUGU
6 | B6 | 1.27 KA relative to UGCAUGU
7 | B7 | 0.0898 KA relative to UGCAUGU
8 | B8 | 0.102 KA relative to UGCAUGU
9 | B9 | 0.1 KA relative to UGCAUGU
10 | B10 | 0.0595 KA relative to UGCAUGU
11 | B11 | 0.0992 KA relative to UGCAUGU
12 | B12 | 0.125 KA relative to UGCAUGU
13 | B13 | 0.0914 KA relative to UGCAUGU
14 | B14 | 0.111 KA relative to UGCAUGU
15 | B15 | 0.102 KA relative to UGCAUGU
16 | B16 | 0.0694 KA relative to UGCAUGU

Row | Binder | binding signal
17 | B17 | 0.0977 KA relative to UGCAUGU
18 | B18 | 0.0861 KA relative to UGCAUGU
19 | B19 | 0.0698 KA relative to UGCAUGU
20 | B20 | 0.0784 KA relative to UGCAUGU
21 | B21 | 0.0985 KA relative to UGCAUGU
22 | B22 | 0.101 KA relative to UGCAUGU
23 | B23 | 0.0891 KA relative to UGCAUGU
24 | B24 | 0.0591 KA relative to UGCAUGU
25 | B25 | 0.0707 KA relative to UGCAUGU
26 | B26 | 0.0827 KA relative to UGCAUGU
27 | B27 | 0.0611 KA relative to UGCAUGU
28 | B28 | 0.0864 KA relative to UGCAUGU
29 | B29 | 0.0943 KA relative to UGCAUGU
30 | B30 | 0.102 KA relative to UGCAUGU
31 | B31 | 0.0798 KA relative to UGCAUGU
